Each structure is given as a SMILES string. Screen size: about 270,000 compounds; about 1,100 (0.41%) were called active. About 3% were inconclusive and are not listed. The call rests on the fitted dose curve. The entries are a selection whose mix differs from that of the whole data set. Where no call is shown, the source filed none.
Potency means the concentration at half of the fitted maximal effect.

This assay in a line: qHTS Assay for Inhibitors of Influenza NS1 Protein Function. Further: actives are rising curves; nearly all actives have a fitted effect of over 50% in size. Conditions: activity, positive = more growth: at 46.1 µM (top of the series). An excerpt: NIH Chemical Genomics Center [NCGC]
NIH Molecular Libraries Probe Centers Network [MLPCN]
Assay Submitter (PI): Daniel Engel
Influenza is a world-wide public health problem and emerging forms of the virus have the potential to cause a pandemic of equal or greater magnitude to the outbreaks recorded in 1918, 1957 or 1968. Vaccine development is proceeding and there also exist two classes of anti-influenza compounds. However these therapeutic modalities are neither fully effective nor widely enough available to fulfill global needs. In addition their potential usefulness against newly emergent strains is not known. Efforts are needed to develop novel agents against influenza virus, including broad-spectrum agents. Identification of small molecules that inhibit NS1 function either directly or by interfering with specific cellular pathways may be a key to increasing our defense against the virus.
We have miniaturized and optimized a cell based assay in which NS1 from influenza A is expressed in the budding yeast S. cerevisiae. NS1 is a multi-functional protein that counters the host innate immune response and facilitates viral versus cellular gene expression. Expression of NS1 causes a pronounced slow growth phenotype in yeast due to its intrinsic molecular activities. Small molecules that suppress the slow growth phenotype can be identified by a straightforward growth recovery assay using optical density (OD) as the measurement. The same yeast strain not expressing NS1 was used as positive control in the yeast growth recovery assay.
The yeast S. cerevisiae control and NS1 expressing cells were kindly supplied by laboratory of Dr. Daniel Engel, University of Virginia. Yeast starter cultures were stored in single use aliquots at -80C.
1. Yeast culture medium per liter: 1.2 g Yeast Nitrogen Base (w/out amino acids and Ammonium Sulphate), 5.0g Ammonium Sulphate, 0.77g -URA DO (drop-out) Supplement, adjust pH to 6.0. Adjust to 2% glucose prior to inoculating with yeast.
2. Yeast assay medium: 1.2 g Yeast Nitrogen Base (w/out amino acids and Ammonium Sulphate), 5.0g Ammonium Sulphate, 0.77g -URA DO (drop-out) Supplement, adjust pH to 6.0. Adjust to 2% D-galactose prior to inoculating with yeast.
1. Inoculate 100 mls of yeast culture medium with 1 ml of frozen yeast aliquote. Incubate overnight at 30C, 250RPM.
2. Harvest overnight culture at 4000 RPM and wash pellet with 15 mls H2O 3x.
3. Re-suspend washed pellet in 10 mls of yeast assay medium.
4. Prepare a 1:100 dilution of re-suspended culture in yeast assay medium.
5. Dispense 3.5 ul per well of reagents in step 4 in columns 2-48 in a black clear bottom 1536 well plate.
6. Dispense 3.5 ul per well of yeast assay medium in column 1 only.
7. Transfer 23 nl of compound per well.
8. Dispense 3.5 ul per well of yeast assay medium in columns 1-48.
9. Read plate using Viewlux protocol for optical density 600 (OD600) using excitation filter 600nm.
For orientation: In qHTS, concentration-response curves come from the screen itself.
Take `COc1ccc(OC)c(NC(=O)c2cc3n(n2)C(C(F)(F)F)CC(c2ccc4c(c2)OCO4)N3)c1` (centres undefined): the activity, positive = more growth was -38.2%.
Take `O=C(Nn1nnnc1Nc1ccccc1)C12CC3CC(CC(C3)C1)C2`: the activity, positive = more growth was -32%.
`O=C(N/N=C/c1cccc([N+](=O)[O-])c1O)C(O)(c1ccccc1)c1ccccc1`: the activity, positive = more growth was -58.7%.
As for `O=c1c(C(c2ccccc2)c2c(O)nc3n(c2=O)CCCS3)c(O)nc2n1CCCS2`, the activity, positive = more growth is 32.4%.
Regarding `Cc1ccc(C(=O)Nc2ccncc2)c(C)c1`, the “activity, positive = more growth” value was inactive: -37.4%.
On to `O=C(c1cccc(F)c1)N1CCN(c2ccc([N+](=O)[O-])c(N3CCCCC3)c2)CC1`, for which the activity, positive = more growth is -32.3%.
`CC(C)C(=O)NC(c1cccc([N+](=O)[O-])c1)c1ccc2cccnc2c1O` (centres undefined): the activity, positive = more growth is -134%.
As to `CCOC(=O)C1=C(C)N(c2ccccc2)C(=O)/C1=C\c1ccc(O)c(OC)c1`, the Potency was active: 2.51 µM.
As to `Cc1cccc(N2CCN(C(=O)/C=C/c3cccs3)CC2)c1C`, the activity, positive = more growth is -58.4%.
Still for that read-out and setting: the value for `Fc1ccc(NC(=S)NCCc2ccccc2)c(F)c1F` was -67.8%.
With `COc1ccccc1C(=O)Nc1ccccc1SC`, the activity, positive = more growth was -63.2%.
As to `C1=C(c2c[nH]c3ccccc23)CCNC1`, the “activity, positive = more growth” value was inactive: -17.6%.
In the case of `COc1ccccc1N1CCN(C(c2cccs2)C(C)NS(=O)(=O)c2ccccc2)CC1` (centres undefined), the activity, positive = more growth is -91.3%.
Take `O=C(Nc1cccnc1)Nc1ccc(F)c(Cl)c1`: the activity, positive = more growth is -31.4%.
`O=C(NC1C2CC3CC(C2)CC1C3)c1ccc2c(c1)OCO2` (centres undefined): the activity, positive = more growth is -32.8%.
With `CCOC(=O)c1ccc(NC(=O)CC2COc3ccccc3O2)cc1` (centres undefined), the activity, positive = more growth is -62.4%.
`CC(=O)N1CCCc2cc(S(=O)(=O)Nc3cccc(C)c3C)ccc21`: the activity, positive = more growth was determined as 16.2%.
On to `O=C1CN(CC(=O)N2CCOCC2)c2ccccc2O1`, for which the activity, positive = more growth was -106%.
The same measure, in the same setting: the value for `Cn1cccc1/C=C1\SC(=O)N(c2ccc(O)cc2)C1=O` was 31.5%; that for `CCOc1ccc(OCc2ccc(C(=O)Nc3ccc(Cl)cn3)o2)cc1` was -30.1%.
For the molecule `CCc1nnc(NC(=O)CSc2ncc(-c3ccccc3)n2C)s1`, the activity, positive = more growth is -46.8%.
On to `Cc1nnc(-c2cccc(Br)c2)c2cn(-c3cccc(Br)c3)nc12`, for which the Potency was active: 8.91 µM.
`O=C1c2[nH]nc(-c3ccccc3O)c2C(c2ccccc2)N1Cc1ccco1` (centres undefined): the activity, positive = more growth is -126%.
As for `Cc1noc(NS(=O)(=O)c2ccc(NC(=O)COc3ccc(Cl)cc3Cl)cc2)c1C`, the activity, positive = more growth is -37.2%.
The same measure, in the same setting: the result for `CCCCn1c(O)c(C(CC)=Nc2ccc(OCC)cc2)c(=O)[nH]c1=O` reads -30.8%; that for `COc1ccc(CCNC(=O)CN(c2ccccc2OC)S(=O)(=O)c2ccc(C)cc2)cc1`, -43%.
Consider `O=C(O)c1cn(-c2ccccc2)nc1-c1ccc(F)cc1`, for which the activity, positive = more growth was -47%.
Still for that read-out and setting: the result for `Cc1ccc(Sc2ccc(NC(=O)CCl)cc2)c(C)c1` reads -61.9%.
With `Cc1ccccc1OCC(=O)NCCC1=CCCCC1`, the activity, positive = more growth was -39.8%.
Turning to `CCOc1ccc(NC(=O)c2cccnc2C(=O)O)cc1`, the Potency was active: 4.47 µM.
Regarding `O=C(O)CCC(=O)N1CCN(c2nc(-c3ccccc3Cl)c3cc(Br)ccc3n2)CC1`, the activity, positive = more growth is -80.1%.
The same measure, in the same setting: the result for `COc1ccc(C2CC(c3ccccc3)=NN2c2ccc(C(N)=O)cc2)cc1` (centres undefined) reads -101%; that for `Nc1nnc(-c2cc3ccccc3oc2=O)s1`, -13.8%; that for `O=C(Nc1cnn(Cc2ccc(Cl)cc2Cl)c1)c1noc2c1CCCC2`, -66.2%.
For the molecule `Sc1oc(-c2ccccc2)cc1C=Nc1ccccc1`, the “activity, positive = more growth” value is inactive: -48%.
For the molecule `COc1ccc(Cl)c(Cn2c(NCc3ccccn3)nc3c2c(=O)n(C)c(=O)n3C)c1`, the activity, positive = more growth is -51%.
Same read-out and setting: the result for `CC(C)C(NS(=O)(=O)c1ccc2c(c1)Cc1cc(S(=O)(=O)NC(C(=O)O)C(C)C)ccc1-2)C(=O)O` (centres undefined) reads 30.4%; that for `CC1=CC(C)(C)N(C(=O)c2ccccc2)c2ccccc21`, -44.5%.
Same read-out and setting: the value for `Cc1ccc(OCc2n[nH]c(=S)n2-c2ccc(Br)cc2)cc1` was -112%; that for `CCCn1c2c(c(O)c(C(=O)Nc3nccs3)c1=O)CCCC2` was -69.8%.
Consider `CCOC(=O)C(Nc1ccc2ccccc2c1)C(=O)OCC`, for which the activity, positive = more growth is -44.6%.
`CCCCn1nnc(N(C(=O)c2cccs2)C(=O)c2cccs2)n1`: the “activity, positive = more growth” value was inactive: -43%.
In the case of `O=C(O)c1ccc(NC(=S)NC(=O)C(c2ccccc2)c2ccccc2)cc1`, the activity, positive = more growth was -47.9%.
With `Cc1ccc(N/C(C(Cl)=C(Cl)Cl)=C(/Cl)[N+](=O)[O-])c(C)c1`, the “activity, positive = more growth” value is inactive: -85.7%.
Consider `O=C(Nc1scc(-c2ccc(F)cc2)c1C(=O)O)c1ccco1`, for which the “activity, positive = more growth” value is inactive: -138%.
As to `COC(=O)CCC(=O)Nc1cccc(Br)c1`, the activity, positive = more growth was -49.7%.
`Cc1nc2ccc(NC(=O)c3cc([N+](=O)[O-])cc([N+](=O)[O-])c3Cl)cc2s1`: the activity, positive = more growth turned out to be 58.5%.
Still for that read-out and setting: the result for `O=C(CN1CCN(S(=O)(=O)c2ccccc2)CC1)Nc1ccc2c(c1)CCC2` reads -59.2%; that for `CCc1[nH]c(=O)c(C#N)c2c1CCCC2`, 43.1%.

Source of the values: PubChem BioAssay AID2326 (National Center for Advancing Translational Sciences (NCATS), 2010).
